Measured values published in the supplement of paper PMC4166925.
± gives the standard deviation of the averaged measurements. Over roughly 33,000 sequences, “E-score (dimensionless, -0.5 to 0.5)” has its median near -0.049; the highest 2% begin near 0.37. This is one part of the list.

Test system: T1, PmTbr T-box DNA-binding domain (GST fusion)
T1 sequence: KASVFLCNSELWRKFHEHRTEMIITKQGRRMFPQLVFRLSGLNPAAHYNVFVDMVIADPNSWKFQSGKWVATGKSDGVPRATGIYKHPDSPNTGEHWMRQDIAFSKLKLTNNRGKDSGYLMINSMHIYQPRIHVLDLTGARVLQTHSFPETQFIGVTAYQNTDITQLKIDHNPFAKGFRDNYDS
Assay: PBM E-score of 8-mer (E-score (dimensionless, -0.5 to 0.5)); Tbr is Tbrain of the sea star Patiria miniata (Pm) or the sea urchin Strongylocentrotus purpuratus (Sp); higher = stronger binding preference; most listed sequences are background and not binding sites
Details: the construct has about 5 more residues each side
Procedure, shortened: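 GST-fused Tbr T-box DNA-binding domains (the whole T-box plus about five flanking residues) were expressed in BL21 E. coli at 20 °C and purified by glutathione affinity chromatography. Universal Agilent oligonucleotide arrays were made double-stranded by primer extension, incubated with 200 nM protein in PBS (pH 7.5), then scanned and quantified. Every ungapped 8-mer was scored from probe intensities. The Universal PBM Analysis Suite gave each word an enrichment E-score, averaged over duplicate arrays.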

Row | Sequence | PBM E-score of 8-mer
1 | AGAAGTGA | 0.273 ± 0.023
2 | ATCTTAGC | 0.113 ± 0.059
3 | CGGCGTAC | -0.162 ± 0.0097
4 | AACGCAAA | -0.00514 ± 0.0059
5 | ATAACGCG | 0.232 ± 0.021
6 | GCATTAAA | -0.207 ± 0.037
7 | CCGAAGGC | -0.0446 ± 0.081
8 | GATAGCGC | 0.315 ± 0.015
9 | AGATGGCC | -0.256 ± 0.0099
10 | ACTACTCG | -0.0337 ± 0.043
11 | GGATGAAA | -0.152 ± 0.013
12 | CTTCTAGC | 0.0419 ± 0.001
13 | CATGGAAC | -0.19 ± 0.03
14 | CTCAAGAA | -0.0351 ± 0.062
15 | CCACTGCC | -0.17 ± 0.095
16 | AAGCCGCC | 0.0264 ± 0.1
17 | AGAGTACC | -0.132 ± 0.064
18 | ACTAAGGG | -0.0243 ± 0.0032
19 | AGCAGTTA | 0.0764 ± 0.014
20 | CTTCTCTA | -0.24 ± 0.065
21 | AATACCTC | 0.00213 ± 0.03
22 | AGAACCAT | -0.12 ± 0.0091
23 | GATCTGCA | -0.0482 ± 0.082
24 | TAATTTAA | -0.134 ± 0.12
25 | CATAGTCC | -0.216 ± 0.019

Row | Sequence | PBM E-score of 8-mer
26 | TCTTCTAA | -0.107 ± 0.0046
27 | ACGCAAGC | 0.043 ± 0.011
28 | ATGATCAC | 0.231 ± 0.013
29 | CACCGTGA | 0.241 ± 0.016
30 | ACGCCGCT | -0.0767 ± 0.029
31 | ACCCGCAG | -0.0801 ± 0.051
32 | AAACCTAC | -0.212 ± 0.034
33 | AACATATT | 0.0441 ± 0.1
34 | GGTCATTA | -0.201 ± 0.076
35 | ACGGAAGT | -0.00371 ± 0.0069
36 | CGGATGTC | -0.00886 ± 0.0041
37 | CCGTCACC | 0.356 ± 0.03
38 | ACATCAGG | -0.262 ± 0.04
39 | AACGTTCT | -0.0645 ± 0.085
40 | ATGCCATA | -0.125 ± 0.044
41 | AGAGGGCT | -0.157 ± 0.088
42 | ATTTAGGG | -0.173 ± 0.025
43 | AGGATACT | -0.158 ± 0.032
44 | ACGCATTA | 0.0776 ± 0.018
45 | AGAATAGA | -0.102 ± 0.08
46 | ACCAGCAT | -0.176 ± 0.026
47 | ATTGTTTG | -0.0825 ± 0.06
48 | TCAGTTCA | -0.185 ± 0.058
49 | AAGGTAAC | -0.00715 ± 0.095
50 | ACTTGCAA | 0.288 ± 0.026

Row | Sequence | PBM E-score of 8-mer
51 | TGGGCACA | -0.0874 ± 0.015
52 | ATGGGCAA | -0.0885 ± 0.0056
53 | GTGTGAAC | 0.4888 ± 0.0019
54 | AACCCTGT | -0.195 ± 0.055
55 | GATTGCTA | 0.0717 ± 0.0034
56 | AGCCCTTG | -0.223 ± 0.13
57 | TAGATCGA | -0.291 ± 0.12
58 | GGGAGAAC | -0.0308 ± 0.04
59 | CACTATCC | 0.0472 ± 0.019
60 | CCGATGGC | 0.0496 ± 0.0056
61 | AAAAAAGC | -0.0763 ± 0.083
62 | GATCGGCA | 0.036 ± 0.041
63 | CGCGACCC | 0.162 ± 0.045
64 | CAATTCTG | 0.115 ± 0.053
65 | TGCTAAAA | 0.355 ± 0.059
66 | TCGACAGA | 0.165 ± 0.015
67 | AATGGTCA | 0.0182 ± 0.0061
68 | GCTGAATA | -0.0804 ± 0.021
69 | ATAATTTA | 0.0668 ± 0.061
70 | ACGTCCAG | 0.00044 ± 0.061
71 | AGAAGACT | -0.295 ± 0.017
72 | CATTTGCG | 0.05 ± 0.021
73 | AATACTCT | -0.111 ± 0.064
74 | ATCCCTCA | -0.0534 ± 0.037
75 | AGTGCGAA | 0.4725 ± 0.00067

Row | Sequence | PBM E-score of 8-mer
76 | CTAGCCAA | -0.0952 ± 0.014
77 | CGTACCCA | -0.136 ± 0.041
78 | TACGTTAA | 0.00481 ± 0.056
79 | AGAATCTC | -0.101 ± 0.014
80 | ATTACGGC | -0.0812 ± 0.046
81 | GTTGGAAA | -0.035 ± 0.01
82 | GCTCATTA | -0.106 ± 0.092
83 | GGTATACA | 0.104 ± 0.0033
84 | CCGGCCCG | -0.221 ± 0.015
85 | ATAGGAAC | -0.205 ± 0.074
86 | ATACCTTG | -0.117 ± 0.061
87 | AAACAGAG | 0.00481 ± 0.078
88 | AGGCATAT | -0.327 ± 0.0097
89 | ACTGCAGG | -0.0649 ± 0.097
90 | GGGTTCCA | -0.174 ± 0.028
91 | GTGCTATA | 0.216 ± 0.022
92 | CTTCAAGC | -0.125 ± 0.0076
93 | GAGCCCTC | -0.149 ± 0.072
94 | CAGAGTTA | 0.0303 ± 0.0041
95 | ACGATTGA | -0.00167 ± 0.056
96 | CCACCCGA | 0.159 ± 0.0077
97 | CGACCGTA | -0.229 ± 0.14
98 | CCCATGGA | -0.224 ± 0.048
99 | CATTGAAA | -0.118 ± 0.03
100 | AGCTGTAC | -0.0876 ± 0.022

Row | Sequence | PBM E-score of 8-mer
101 | ATTCATGG | 0.0231 ± 0.023
102 | GCCGCTAA | 0.171 ± 0.011
103 | CGCCAAGA | -0.0181 ± 0.0017
104 | ATACATGA | -0.0916 ± 0.04
105 | ACCTGCAA | 0.227 ± 0.043
106 | CAATTCTA | -0.0043 ± 0.092
107 | AAGTTCTA | -0.174 ± 0.031
108 | CGACCTTA | -0.208 ± 0.062
109 | AATAGGTA | -0.0644 ± 0.018
110 | TTATTGAA | -0.164 ± 0.1
111 | CGGTGGCA | 0.147 ± 0.031
112 | AAAACCAT | 0.0108 ± 0.067
113 | AGATGTGC | 0.163 ± 0.018
114 | AGCACCAG | 0.0646 ± 0.048
115 | GCACCACA | 0.133 ± 0.047
116 | TAACGAGA | -0.0247 ± 0.016
117 | CCGCCTCC | 0.112 ± 0.033
118 | AACTTACT | -0.0624 ± 0.06
119 | GGAATGCC | -0.137 ± 0.055
120 | ACGCCAGG | 0.0268 ± 0.0071
121 | CCGATGTC | -0.155 ± 0.077
122 | CAGCTAAC | 0.106 ± 0.0085
123 | TCATCTCA | 0.021 ± 0.0039
124 | ATATCTTA | 0.0978 ± 0.059
125 | ACACTGGG | -0.0889 ± 0.057

Row | Sequence | PBM E-score of 8-mer
126 | ACCTAGGA | 0.114 ± 0.021
127 | GCCGGCAA | -0.0351 ± 0.026
128 | CTATTGTA | -0.308 ± 0.038
129 | AAAGGGAG | -0.101 ± 0.018
130 | CGCTTGTA | -0.116 ± 0.0057
131 | GAGTCACC | 0.0547 ± 0.0061
132 | CACCTGTA | 0.391 ± 0.009
133 | GGAGGCAC | -0.167 ± 0.081
134 | ACTTACCG | -0.129 ± 0.011
135 | ATACAAAG | -0.123 ± 0.0031
136 | ACACAACG | 0.219 ± 0.041
137 | ATCGGTGC | -0.0144 ± 0.081
138 | AATCATTC | -0.0705 ± 0.015
139 | ACTAGACC | -0.3241 ± 0.0027
140 | AACTCGCC | 0.129 ± 0.049
141 | CGAGGGCA | -0.019 ± 0.015
142 | GCACACGA | -0.135 ± 0.041
143 | ATCGCTAA | 0.184 ± 0.026
144 | AGACCGAA | -0.308 ± 0.011
145 | GAATAGAA | -0.0368 ± 0.083
146 | CTGCTAAG | 0.108 ± 0.0053
147 | GATATCGC | 0.251 ± 0.0074
148 | ACGCATGG | -0.144 ± 0.075
149 | ACGTACGG | -0.0629 ± 0.007
150 | GTGGGTCA | -0.104 ± 0.09

Row | Sequence | PBM E-score of 8-mer
151 | AAGGCATA | -0.153 ± 0.027
152 | AAGGCAGT | -0.072 ± 0.0083
153 | AAGCCGTA | -0.239 ± 0.029
154 | ATAAGCCC | -0.277 ± 0.0059
155 | GGATACGA | 0.0693 ± 0.066
156 | CCCCAAAA | -0.0808 ± 0.0076
157 | ATATACGG | -0.038 ± 0.039
158 | CATCTAGG | 0.0133 ± 0.015
159 | CTTCGTAA | 0.0116 ± 0.018
160 | CCTAATAA | -0.0602 ± 0.091
161 | ATGATAAA | 0.155 ± 0.005
162 | CCTCAGGA | -0.173 ± 0.026
163 | ACTCTTTC | -0.00346 ± 0.013
164 | CCTTCTGA | -0.192 ± 0.11
165 | ATCTAGAA | -0.133 ± 0.024
166 | AAAACCCA | -0.0352 ± 0.12
167 | GCTCGCAA | 0.242 ± 0.015
168 | ACTGGGTG | 0.127 ± 0.012
169 | ACTCGATG | -0.102 ± 0.018
170 | CAGGCCTG | -0.29 ± 0.0073
171 | CGCAGGGA | -0.176 ± 0.04
172 | AGTGTAGA | 0.0847 ± 0.056
